# Data from article PMC11629677.
# Sequences of proteins named here, by UniProt entry; tags and fusion partners are left off.
# UniProt Q86U44: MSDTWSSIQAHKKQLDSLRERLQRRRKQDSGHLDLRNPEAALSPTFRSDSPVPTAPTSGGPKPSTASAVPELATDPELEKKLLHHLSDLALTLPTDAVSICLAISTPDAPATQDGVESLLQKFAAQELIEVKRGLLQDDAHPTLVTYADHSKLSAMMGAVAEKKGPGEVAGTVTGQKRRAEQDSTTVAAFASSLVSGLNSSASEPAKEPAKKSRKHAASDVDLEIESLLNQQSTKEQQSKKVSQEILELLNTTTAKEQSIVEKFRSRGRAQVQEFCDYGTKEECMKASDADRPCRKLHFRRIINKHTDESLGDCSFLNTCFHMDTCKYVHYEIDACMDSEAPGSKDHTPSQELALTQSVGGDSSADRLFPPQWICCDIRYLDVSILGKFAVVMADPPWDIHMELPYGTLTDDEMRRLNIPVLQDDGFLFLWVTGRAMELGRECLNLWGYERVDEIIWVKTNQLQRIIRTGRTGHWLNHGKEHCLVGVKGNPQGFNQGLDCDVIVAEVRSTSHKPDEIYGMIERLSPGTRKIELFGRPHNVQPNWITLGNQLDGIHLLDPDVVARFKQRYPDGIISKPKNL
# UniProt P08621: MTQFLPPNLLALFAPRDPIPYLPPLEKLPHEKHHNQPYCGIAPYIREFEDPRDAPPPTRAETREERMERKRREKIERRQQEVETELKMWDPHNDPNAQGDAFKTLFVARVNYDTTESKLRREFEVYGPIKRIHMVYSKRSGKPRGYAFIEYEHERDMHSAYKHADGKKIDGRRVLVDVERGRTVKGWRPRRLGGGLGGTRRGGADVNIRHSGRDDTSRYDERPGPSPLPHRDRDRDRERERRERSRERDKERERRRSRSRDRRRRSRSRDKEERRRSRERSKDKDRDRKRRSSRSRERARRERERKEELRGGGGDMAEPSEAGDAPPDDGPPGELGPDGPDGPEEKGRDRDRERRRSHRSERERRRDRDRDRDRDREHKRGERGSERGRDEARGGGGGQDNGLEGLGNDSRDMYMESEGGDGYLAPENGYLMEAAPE
# UniProt P38919: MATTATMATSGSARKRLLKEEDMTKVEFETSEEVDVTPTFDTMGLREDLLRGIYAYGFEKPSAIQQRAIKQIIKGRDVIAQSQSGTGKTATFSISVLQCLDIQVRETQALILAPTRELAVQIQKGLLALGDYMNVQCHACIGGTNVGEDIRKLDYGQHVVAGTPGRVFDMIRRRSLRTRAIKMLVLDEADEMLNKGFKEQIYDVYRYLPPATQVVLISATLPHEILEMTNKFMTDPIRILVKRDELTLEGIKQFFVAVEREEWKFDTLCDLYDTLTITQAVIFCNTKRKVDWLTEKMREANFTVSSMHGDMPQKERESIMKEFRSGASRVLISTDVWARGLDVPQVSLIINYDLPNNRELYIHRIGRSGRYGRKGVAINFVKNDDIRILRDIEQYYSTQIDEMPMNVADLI
# These are yes or no findings as the source states them, for the method shown. Binding seen in cells or lysates may run through a third protein. Some binding calls cover weakened binding; strength is not graded here. For some assays here: Sequences can lack the tags named with a protein.
# T1: FLAG-ZFC3H1 (1-1,233) (human) (UniProt O60293)
# T1 sequence: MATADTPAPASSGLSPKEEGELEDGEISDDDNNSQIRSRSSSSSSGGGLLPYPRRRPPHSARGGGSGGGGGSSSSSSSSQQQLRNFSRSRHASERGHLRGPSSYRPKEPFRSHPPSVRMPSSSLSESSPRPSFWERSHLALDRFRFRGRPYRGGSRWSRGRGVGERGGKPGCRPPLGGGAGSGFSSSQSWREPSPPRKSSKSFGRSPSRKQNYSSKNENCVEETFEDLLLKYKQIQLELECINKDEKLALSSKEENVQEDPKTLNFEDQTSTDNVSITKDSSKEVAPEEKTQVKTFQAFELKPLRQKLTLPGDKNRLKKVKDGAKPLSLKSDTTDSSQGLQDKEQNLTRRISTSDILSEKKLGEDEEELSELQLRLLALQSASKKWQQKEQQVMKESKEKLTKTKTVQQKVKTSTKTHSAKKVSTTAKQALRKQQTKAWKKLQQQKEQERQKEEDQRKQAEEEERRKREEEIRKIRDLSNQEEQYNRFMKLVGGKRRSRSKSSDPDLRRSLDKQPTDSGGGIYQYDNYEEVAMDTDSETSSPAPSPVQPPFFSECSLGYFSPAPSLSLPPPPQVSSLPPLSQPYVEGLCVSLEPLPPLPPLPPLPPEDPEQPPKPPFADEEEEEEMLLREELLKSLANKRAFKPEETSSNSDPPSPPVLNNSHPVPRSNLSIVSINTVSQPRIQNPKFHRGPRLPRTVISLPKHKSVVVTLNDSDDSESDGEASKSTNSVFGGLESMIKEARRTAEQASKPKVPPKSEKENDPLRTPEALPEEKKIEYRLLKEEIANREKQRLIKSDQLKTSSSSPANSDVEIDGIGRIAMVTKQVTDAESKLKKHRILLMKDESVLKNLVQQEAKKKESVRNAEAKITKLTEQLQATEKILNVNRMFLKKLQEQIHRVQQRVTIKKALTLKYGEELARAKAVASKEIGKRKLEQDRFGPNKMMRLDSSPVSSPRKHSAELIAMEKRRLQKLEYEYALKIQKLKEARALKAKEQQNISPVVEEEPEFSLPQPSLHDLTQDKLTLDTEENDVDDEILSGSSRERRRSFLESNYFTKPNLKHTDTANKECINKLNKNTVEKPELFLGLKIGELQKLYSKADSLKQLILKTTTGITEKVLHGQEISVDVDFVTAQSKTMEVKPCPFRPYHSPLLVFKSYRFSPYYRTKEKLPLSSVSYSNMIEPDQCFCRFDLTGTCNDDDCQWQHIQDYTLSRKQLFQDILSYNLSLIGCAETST
# B1: YTHDC2 (endogenous) (protein, UniProt Q9H6S0 1-1430)
# chain: MSRPSSVSPRQPAPGGGGGGGPSPCGPGGGGRAKGLKDIRIDEEVKIAVNIALERFRYGDQREMEFPSSLTSTERAFIHRLSQSLGLVSKSKGKGANRYLTVKKKDGSETAHAMMTCNLTHNTKHAVRSLIQRFPVTNKERTELLPKTERGNVFAVEAENREMSKTSGRLNNGIPQIPVKRGESEFDSFRQSLPVFEKQEEIVKIIKENKVVLIVGETGSGKTTQIPQFLLDDCFKNGIPCRIFCTQPRRLAAIAVAERVAAERRERIGQTIGYQIRLESRVSPKTLLTFCTNGVLLRTLMAGDSTLSTVTHVIVDEVHERDRFSDFLLTKLRDLLQKHPTLKLILSSAALDVNLFIRYFGSCPVIYIQGRPFEVKEMFLEDILRTTGYTNKEMLKYKKEKQQEEKQQTTLTEWYSAQENSFKPESQRQRTVLNVTDEYDLLDDGGDAVFSQLTEKDVNCLEPWLIKEMDACLSDIWLHKDIDAFAQVFHLILTENVSVDYRHSETSATALMVAAGRGFASQVEQLISMGANVHSKASNGWMALDWAKHFGQTEIVDLLESYSATLEFGNLDESSLVQTNGSDLSAEDRELLKAYHHSFDDEKVDLDLIMHLLYNICHSCDAGAVLIFLPGYDEIVGLRDRILFDDKRFADSTHRYQVFMLHSNMQTSDQKKVLKNPPAGVRKIILSTNIAETSITVNDVVFVIDSGKVKEKSFDALNFVTMLKMVWISKASAIQRKGRAGRCRPGICFRLFSRLRFQNMLEFQTPELLRMPLQELCLHTKLLAPVNCPIADFLMKAPEPPPALIVRNAVQMLKTIDAMDTWEDLTELGYHLADLPVEPHLGKMVLCAVVLKCLDPILTIACTLAYRDPFVLPTQASQKRAAMLCRKRFTAGAFSDHMALLRAFQAWQKARSDGWERAFCEKNFLSQATMEIIIGMRTQLLGQLRASGFVRARGGGDIRDVNTNSENWAVVKAALVAGMYPNLVHVDRENLVLTGPKEKKVRFHPASVLSQPQYKKIPPANGQAAAIKALPTDWLIYDEMTRAHRIANIRCCSAVTPVTILVFCGPARLASNALQEPSSFRVDGIPNDSSDSEMEDKTTANLAALKLDEWLHFTLEPEAASLLLQLRQKWHSLFLRRMRAPSKPWSQVDEATIRAIIAVLSTEEQSAGLQQPSGIGQRPRPMSSEELPLASSWRSNNSRKSSADTEFSDECTTAERVLMKSPSPALHPPQKYKDRGILHPKRGTEDRSDQSSLKSTDSSSYPSPCASPSPPSSGKGSKSPSPRPNMPVRYFIMKSSNLRNLEISQQKGIWSTTPSNERKLNRAFWESSIVYLVFSVQGSGHFQGFSRMSSEIGREKSQDWGSAGLGGVFKVEWIRKESLPFQFAHHLLNPWNDNKKVQISRDGQELEPLVGEQLLQLWERLPLGEKNTTD
# B2: G3BP2 (endogenous) (protein, UniProt Q9UN86 1-482)
# chain: MVMEKPSPLLVGREFVRQYYTLLNKAPEYLHRFYGRNSSYVHGGVDASGKPQEAVYGQNDIHHKVLSLNFSECHTKIRHVDAHATLSDGVVVQVMGLLSNSGQPERKFMQTFVLAPEGSVPNKFYVHNDMFRYEDEVFGDSEPELDEESEDEVEEEQEERQPSPEPVQENANSGYYEAHPVTNGIEEPLEESSHEPEPEPESETKTEELKPQVEEKNLEELEEKSTTPPPAEPVSLPQEPPKAFSWASVTSKNLPPSGTVSSSGIPPHVKAPVSQPRVEAKPEVQSQPPRVREQRPRERPGFPPRGPRPGRGDMEQNDSDNRRIIRYPDSHQLFVGNLPHDIDENELKEFFMSFGNVVELRINTKGVGGKLPNFGFVVFDDSEPVQRILIAKPIMFRGEVRLNVEEKKTRAARERETRGGGDDRRDIRRNDRGPGGPRGIVGGGMMRDRDGRGPPPRGGMAQKLGSGRGTGQMEGRFTGQRR
# Key:
# [1] = target: T1, FLAG-ZFC3H1 (1-1,233) (human); experiment: co-IP; FLAG-tagged bait expressed in HEK293 cells, lysate (20 mM Tris-HCl pH 8, 137 mM NaCl, 1% NP-40, 2 mM EDTA) on FLAG M2 beads, 3 h or overnight at 4°C; washes with 300 mM NaCl; precipitates treated with buffer or RNase A/T1 and reisolated; immunoblot for endogenous proteins
# FLAG-ZFC3H1-HA (human) = FLAG-ZFC3H1-HA (human) (UniProt O60293); experiment: as above
molecule,measurement,setting,value
METTL3 (endogenous) (from UniProt Q86U44 1-580),binding,[1],no binding
U1-70K (endogenous) (from UniProt P08621 1-437),binding,FLAG-ZFC3H1-HA (human),binds
same,binding,[1],binds
eIF4AIII (endogenous) (from UniProt P38919 1-411),binding,FLAG-ZFC3H1-HA (human),no binding
same,binding,[1],no binding
B1,binding,FLAG-ZFC3H1-HA (human),binds
same,binding,[1],binds
B2,binding,FLAG-ZFC3H1-HA (human),no binding
